Patent publication US11618753B2 (priority 2018, dated 2023)

Test system: MLKL phosphorylation, HT29-L23 human colorectal adenocarcinoma cells
Details: read-out: pMLKL HCS Cell Assay (IC50)

Row | Compound | IC50
1 | COc1ncc(-c2cc(C(F)(F)F)c3c(N)ncnn23)cc1C(=O)NC1CN(C(C)C(C)O)C[C@@H]1F (stereo partly drawn) [Example 1411, 5-[4-amino-5-(trifluoromethyl)-pyrrolo[2,1-f][1,2,4]triazin-7-yl]-N-[(3R,4S)-4-fluoro-1-(3-hydroxybutan-2-yl)pyrrolidin-3-yl]-2-methoxypyridine-3-carboxamide] | 167 nM
2 | Cc1cc(F)c(-c2cc(C(F)(F)F)c3c(N)ncnn23)cc1C(=O)N[C@@H]1CN(C(=O)C2CC2(F)F)C[C@@H]1F (single isomer, unassigned) [Example 862] | 103 nM
3 | COc1ncc(-c2cc(C(F)(F)F)c3c(N)ncnn23)cc1C(=O)N[C@@H]1CN(C(C)c2cncs2)C[C@@H]1F (single isomer, unassigned) [Example 445] | 0.83 nM
4 | COc1ncc(-c2cc(C(F)(F)F)c3c(N)ncnn23)cc1C(=O)NC1CN(C(C)c2c(C)noc2C)C[C@@H]1F (stereo partly drawn) [Example 1403, 5-[4-amino-5-(trifluoromethyl)-pyrrolo[2,1-f][1,2,4]triazin-7-yl]-N-[(3R,4S)-1-[1-(3,5-dimethyl-1,2-oxazol-4-yl)-ethyl]-4-fluoropyrrolidin-3-yl]-2-methoxypyridine-3-carboxamide] | 92 nM
5 | COc1ncc(-c2cc(C(F)(F)F)c3c(N)ncnn23)cc1C(=O)NCCC(O)(c1ccccc1)C(F)(F)F (single isomer, unassigned) [Example 142, 5-[4-amino-5-(trifluoromethyl)pyrrolo[2,1-f][1,2,4]triazin-7-yl]-2-methoxy-N-(4,4,4-trifluoro-3-hydroxy-3-phenylbutyl)pyridine-3-carboxamide] | 70 nM
6 | CCC(O)(CN1C[C@H](F)[C@H](NC(=O)c2cc(-c3cc(C(F)(F)F)c4c(N)ncnn34)cnc2OC)C1)C(F)(F)F (stereo partly drawn) [Example 1823, 5-(4-amino-5-(trifluoromethyl)pyrrolo[2,1-f][1,2,4]triazin-7-yl)-N-((3R,4S)-4-fluoro-1-(2-hydroxy-2-(trifluoromethyl)butyl)pyrrolidin-3-yl)-2-methoxynicotinamide] | 24 nM
7 | COc1ncc(-c2cc(C(F)(F)F)c3c(N)ncnn23)cc1C(=O)NC1CN(C2CCCC2C(O)C(F)(F)F)C[C@@H]1F (stereo partly drawn) [Example 1377, 5-[4-amino-5-(trifluoromethyl)-pyrrolo[2,1-f][1,2,4]triazin-7-yl]-N-[(3R,4S)-4-fluoro-1-[2-(2,2,2-trifluoro-1-hydroxy-ethyl)cyclopentyl]pyrrolidin-3-yl]-2-methoxypyridine-3-carboxamide] | 375 nM
8 | Cc1ncc(-c2cc(C(F)(F)F)c3c(N)ncnn23)cc1C(=O)N1CCCC(C(C)(O)c2ccc(F)cc2)C1 (stereo not drawn) [Example 1736, (5-(4-amino-5-(trifluoromethyl)pyrrolo[2,1-f][1,2,4]triazin-7-yl)-2-methylpyridin-3-yl)(3-(1-(4-fluorophenyl)-1-hydroxyethyl)piperidin-1-yl)methanone] | 222 nM
9 | COc1ncc(-c2cc(C(F)(F)F)c3c(N)ncnn23)cc1C(=O)NCCC(O)(c1ccccc1)C(F)(F)F (single isomer, unassigned) [Example 141, 5-[4-amino-5-(trifluoromethyl)pyrrolo[2,1-f][1,2,4]triazin-7-yl]-2-methoxy-N-(4,4,4-trifluoro-3-hydroxy-3-phenylbutyl)pyridine-3-carboxamide] | 208 nM
10 | [2H]C([2H])([2H])Oc1nc(C)c(-c2cc(C(F)(F)F)c3c(N)ncnn23)cc1C(=O)NC1CN(C(=O)C2CCC(F)(F)C2)C[C@@H]1F (single isomer, unassigned) [Example 516] | 80 nM
11 | COc1ncc(-c2cc(C(F)(F)F)c3c(N)ncnn23)cc1C(=O)N[C@@H]1CN(C(C)c2ccncc2)C[C@@H]1F (single isomer, unassigned) [Example 438] | 2.1 nM
12 | COc1ncc(-c2cc(C(F)(F)F)c3c(N)ncnn23)cc1C(=O)NCC(C)(O)C(OC)c1ccc(F)cc1 (single isomer, unassigned) [Example 1753, 5-(4-amino-5-(trifluoromethyl)pyrrolo[2,1-f][1,2,4]triazin-7-yl)-N-(3-(4-fluorophenyl)-2-hydroxy-3-methoxy-2-methylpropyl)-2-methoxynicotinamide] | 4.1 nM
13 | COc1ncc(-c2cc(C(F)(F)F)c3c(N)ncnn23)cc1C(=O)NC1CN(C(C)C(C)O)C[C@@H]1F (stereo partly drawn) [Example 1413, 5-[4-amino-5-(trifluoromethyl)-pyrrolo[2,1-f][1,2,4]triazin-7-yl]-N-[(3R,4S)-4-fluoro-1-(3-hydroxybutan-2-yl)pyrrolidin-3-yl]-2-methoxypyridine-3-carboxamide] | 95 nM
14 | COc1ncc(-c2cc(C(F)(F)F)c3c(N)ncnn23)cc1C(=O)N1CCCC(C)(C(O)c2ccc(F)cc2)C1 (stereo not drawn) [Example 1738, (5-(4-amino-5-(trifluoromethyl)pyrrolo[2,1-f][1,2,4]triazin-7-yl)-2-methoxypyridin-3-yl)(3-((4-fluorophenyl)(hydroxy)methyl)-3-methylpiperidin-1-yl)methanone] | 63 nM
15 | CC(CC(=O)N1C[C@H](F)[C@H](NC(=O)c2cc(-c3cc(C(F)(F)F)c4c(N)ncnn34)cc(F)c2Cl)C1)C(F)(F)F (single isomer, unassigned) [Example 1330] | 3.3 nM
16 | COc1ncc(-c2cc(C(F)(F)F)c3c(N)ncnn23)cc1C(=O)N1CCCC(C(C)(O)c2ccc(F)cc2)C1 (stereo not drawn) [Example 1734, (5-(4-amino-5-(trifluoromethyl)pyrrolo[2,1-f][1,2,4]triazin-7-yl)-2-methoxypyridin-3-yl)(3-(1-(4-fluorophenyl)-1-hydroxyethyl)piperidin-1-yl)methanone] | 284 nM
17 | COc1ncc(-c2cc(C(F)(F)F)c3c(N)ncnn23)cc1C(=O)NC1CN(C2CCCCC2(C)O)C[C@@H]1F (stereo partly drawn) [Example 1414, 5-[4-amino-5-(trifluoromethyl)-pyrrolo[2,1-f][1,2,4]triazin-7-yl]-N-[(3R,4S)-4-fluoro-1-(2-hydroxy-2-methylcyclo-hexyl]pyrrolidin-3-yl]-2-methoxypyridine-3-carbox-amide] | 85 nM
18 | COc1ncc(-c2cc(C(F)(F)F)c3c(N)ncnn23)cc1C(=O)NC1CN(C(C)c2cc(F)cc(F)c2)C[C@@H]1F (stereo partly drawn) [Example 459] | 2.6 nM
19 | CCc1c(F)cc(-c2cc(C(F)(F)F)c3c(N)ncnn23)cc1C(=O)N[C@@H]1CN(C(=O)C2CC(F)C2)C[C@@H]1F (stereo partly drawn) [Example 655, 5-[4-amino-5-(trifluoromethyl)pyrrolo[2,1-f][1,2,4]triazin-7-yl]-2-ethyl-3-fluoro-N-[(3R,4S)-4-fluoro-1-(3-fluorocyclobutanecarbonyl)pyrrolidin-3-yl]benzamide] | 6.8 nM
20 | COc1ncc(-c2cc(C(F)(F)F)c3c(N)ncnn23)cc1C(=O)N1CCCC(C(O)c2ccc(F)cc2)C1 (single isomer, unassigned) [Example 1732, (5-(4-amino-5-(trifluoromethyl)pyrrolo[2,1-f][1,2,4]triazin-7-yl)-2-methoxypyridin-3-yl)(3-((4-fluorophenyl)(hydroxy)methyl)piperidin-1-yl)methanone] | 82 nM
21 | COc1ccccc1C(C)N1CC(NC(=O)c2cc(-c3cc(C(F)(F)F)c4c(N)ncnn34)cnc2OC)[C@@H](F)C1 (stereo partly drawn) [Example 1369, 5-[4-amino-5-(trifluoromethyl)-pyrrolo[2,1-f][1,2,4]triazin-7-yl]-N-[(3R,4S)-4-fluoro-1-[1-(2-methoxyphenyl)ethyl]-pyrrolidin-3-yl]-2-methoxy-pyridine-3-carboxamide] | 47 nM
22 | COc1ncc(-c2c(C#N)cc3c(N)ncnn23)cc1C(=O)N[C@@H]1CN(C(=O)C2CCC(C(F)(F)F)CC2)C[C@@H]1F (single isomer, unassigned) [Example 556] | 5380 nM
23 | COc1ncc(-c2cc(C(F)(F)F)c3c(N)ncnn23)cc1C(=O)N[C@@H]1CN(C(CC(F)(F)F)c2ccccc2)C[C@@H]1F (single isomer, unassigned) [Example 447] | 126 nM
24 | Nc1ncnn2c(-c3cccc(C(=O)N[C@@H]4CN(C(=O)C5CC(F)C5)C[C@@H]4F)c3)cc(CN3CC(F)(F)C3)c12 (stereo partly drawn) [Example 1175, 3-{4-amino-5-[(3,3-difluoroazetidin-1-yl)methyl]pyrrolo[2,1-f][1,2,4]triazin-7-yl}-N-[(3R,4S)-4-fluoro-1-(3-fluorocyclobutanecarbonyl)pyrrolidin-3-yl]benzamide] | 1.3 nM
25 | CC(CC(=O)N1C[C@H](F)[C@H](NC(=O)c2cc(-c3cc(C(F)(F)F)c4c(N)ncnn34)cc(F)c2Cl)C1)C(F)(F)F (single isomer, unassigned) [Example 1331] | 21 nM
26 | CCCC(N)(C(=O)N1CC(NC(=O)c2cc(-c3cc(C(F)(F)F)c4c(N)ncnn34)cnc2OC)[C@@H](F)C1)C(F)(F)F (single isomer, unassigned) [Example 1546] | 17 nM
27 | COc1ncc(-c2cc(C(F)(F)F)c3c(N)ncnn23)cc1C(=O)N[C@@H]1CN(C2CCCC2(C)O)C[C@@H]1F (stereo partly drawn) [Example 1412, 5-[4-amino-5-(trifluoromethyl)-pyrrolo[2,1-f][1,2,4]triazin-7-yl]-N-[(3R,4S)-4-fluoro-1-(2-hydroxy-2-methylcyclopentyl)-pyrrolidin-3-yl]-2-methoxy-pyridine-3-carboxamide] | 433 nM
28 | COc1ncc(-c2cc(C(F)(F)F)c3c(N)ncnn23)cc1C(=O)N[C@@H]1CN(C2CCCC2(C)C)C[C@@H]1F (stereo partly drawn) [Example 1379, 5-[4-amino-5-(trifluoromethyl)-pyrrolo[2,1-f][1,2,4]triazin-7-yl]-N-[(3R,4S)-1-(2,2-dimethylcyclopentyl)-4-fluoro-pyrrolidin-3-yl]-2-methoxy-pyridine-3-carboxamide] | 134 nM
29 | COc1ncc(-c2cc(CN3CCC(F)(F)CC3)c3c(N)ncnn23)cc1C(=O)N[C@@H]1CN(C(=O)OC(C)C(F)(F)C(F)(F)F)C[C@@H]1F (stereo partly drawn) [Example 1531, 3,3,4,4,4-pentafluorobutan-2-yl (3R,4S)-3-(5-{4-amino-5-[(4,4-difluoropiperidin-1-yl)methyl]pyrrolo[2,1-f][1,2,4]triazin-7-yl}-2-methoxypyridine-3-amido)-4-fluoropyrrolidine-1-carboxylate] | 39 nM
30 | Cc1nc(C)c(-c2cc(C(F)(F)F)c3c(N)ncnn23)cc1C(=O)N[C@@H]1CN(C(=O)C2CCC(F)(F)C2)C[C@@H]1F (single isomer, unassigned) [Example 527] | 79 nM
